Results on 40 molecules are retold here after the supplement of paper PMC9446081.

Each structure is given as a SMILES string. Hit rate of the full screen: of about 39,000 compounds, about 220 (0.56%) showed activity. The list shows a part of the results.
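Note: static incubation at 37 °C against the wild-type strain, values averaged over two biological replicates.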

For the test, the system named is Escherichia coli K-12 BW25113. Description: relative growth (OD600 normalised to plate interquartile mean) (fraction); higher = less growth inhibition, active = 0.2 or less. The conditions noted are these: 50 µM; LB; incubation time: overnight (16-24 h).
Turning to `Cn1c(=O)[nH]c(=O)c2c(=O)cc[nH]c21`, the relative growth is inactive: 1.03.
For `COc1ccccc1C#Cc1cnc2c(c1)C(=O)N([C@H](C)CO)C[C@H](C)[C@@H](CN(C)C(=O)c1ccc3c(c1)OCO3)O2`, the relative growth is inactive: 0.962.
As to `O=[N+]([O-])c1ccc(/C=C/CN(C/C=C/c2ccc([N+](=O)[O-])cc2)CCCCNS(=O)(=O)c2cccc3cnccc23)cc1`, the relative growth is inactive: 1.03.
Regarding `C[C@@H]1CN([C@@H](C)CO)C(=O)c2cc(NS(=O)(=O)c3cccs3)ccc2O[C@@H](C)CCCCO[C@H]1CN(C)Cc1ccc2c(c1)OCO2`, the relative growth was inactive: 1.
For `CCN(CC)CCNC(=O)c1ccc(N)cc1.Cl`, the relative growth was inactive: 1.01.
In the case of `CC(C)CN1CCN[C@@H](C)C1=O` it was inactive: 0.978; in that of `Cl.N=C(N)NCCCC(N)C(=O)O` (stereo not given), inactive: 0.867.
In the case of `O=C(C[C@H]1C[C@H]2c3cc(NS(=O)(=O)c4ccc(F)cc4)ccc3O[C@H]2[C@@H](CO)O1)NCc1ccncc1` it was inactive: 1.02; in that of `C[C@@H]1CCCCO[C@H](CN(C)Cc2ccncc2)[C@@H](C)CN([C@@H](C)CO)C(=O)c2cc(NC(=O)Nc3cccc4ccccc34)ccc2O1`, inactive: 1; in that of `CC(C)(C)NC[C@@H](O)CSc1nc(-c2ccc(C(N)=O)s2)cs1`, inactive: 0.996.
In the case of `Cc1ccc(/C=N/N(C)C2=NCCN2)o1` it was inactive: 0.968; in that of `CNC[C@H](O)c1ccc(O)c(O)c1`, inactive: 1.02.
For the molecule `CCC(=O)Nc1ccc2c(c1)OC[C@@H](C)N(C(=O)CN1CCOCC1)C[C@@H](C)[C@H](OC)CN(C)C2=O`, the relative growth is inactive: 1.02.
In the case of `O=C1O[C@@H](c2ccccc2)[C@@H](c2ccccc2)N2[C@@H](c3ccc(OCCO)cc3)[C@]3(C(=O)Nc4ccc(C#CC5=CCCCC5)cc43)[C@@H](C(=O)N3CCCCCCC3)[C@H]12` it was inactive: 1.02.
With `C[C@H]1CCCCO[C@H](CN(C)C(=O)Nc2ccc3c(c2)OCO3)[C@@H](C)CN([C@@H](C)CO)C(=O)c2cc(NS(=O)(=O)c3ccc(Cl)cc3)ccc2O1`, the relative growth was inactive: 1.03.
`C[C@H](CO)N1C[C@H](C)[C@H](CN(C)Cc2ccc(Oc3ccccc3)cc2)Oc2cc(Br)ccc2S1(=O)=O`: the relative growth is inactive: 1.02.
`C[C@@H]1CN([C@@H](C)CO)C(=O)c2cc(NS(=O)(=O)c3ccccc3)ccc2O[C@@H]1CN(C)Cc1ccc(-c2ccccc2)cc1`: the relative growth is inactive: 1.03.
`Cc1ccc(S(=O)(=O)Nc2ccc3c(c2)CC(=O)N([C@@H](C)CO)C[C@H](C)[C@H](CN(C)Cc2ccc(C(F)(F)F)cc2)O3)cc1`: the relative growth was inactive: 0.889.
As for `C[C@@H]1CN([C@H](C)CO)C(=O)c2cccc(NS(=O)(=O)c3ccc(F)cc3)c2O[C@@H]1CN(C)C(=O)Nc1ccc(C(F)(F)F)cc1`, the relative growth is inactive: 0.976.
On to `C[C@@H]1CN([C@H](C)CO)C(=O)c2cccc(NS(=O)(=O)c3ccccc3)c2O[C@H]1CN(C)CC1CC1`, for which the relative growth was inactive: 1.02.
In the case of `CC(C)NC(=O)N(C)C[C@H]1OCc2cn(nn2)CCCC(=O)N([C@H](C)CO)C[C@H]1C` it was inactive: 1.
In the case of `C[C@H](CO)N1C[C@H](C)[C@H](CN(C)Cc2ccc(Cl)c(Cl)c2)Oc2ccc(NC(=O)Nc3ccccc3)cc2C1=O` it was inactive: 1.03; in that of `C[C@@H]1CCCCO[C@@H](CN(C)Cc2ccc(C(=O)O)cc2)[C@H](C)CN([C@H](C)CO)C(=O)c2cc(NS(=O)(=O)c3cccs3)ccc2O1`, inactive: 0.997.
Regarding `CCS(=O)(=O)Nc1ccc2c(c1)C(=O)N(C)C[C@H](OC)[C@@H](C)CN(Cc1nccs1)[C@@H](C)CO2`, the relative growth was inactive: 1.02.
In the case of `COc1ccc(CN(C)C[C@@H]2OCCCC[C@@H](C)Oc3ccc(NC(=O)C4CCCCC4)cc3C(=O)N([C@@H](C)CO)C[C@H]2C)cc1` it was inactive: 1; in that of `Cc1ccc(S(=O)(=O)N(C)C[C@@H]2Oc3ccc(NC(=O)Cn4cnnn4)cc3CC(=O)N([C@H](C)CO)C[C@@H]2C)cc1`, inactive: 0.99; in that of `CC(=O)Nc1nonc1N1CCCC1=O`, inactive: 0.997.
Take `C[C@H](CO)N1C[C@H](C)[C@H](CN(C)C(=O)Cc2cccnc2)Oc2cc(C#CC3(O)CCCC3)ccc2S1(=O)=O`: the relative growth was inactive: 1.02.
For the molecule `C[C@@H]1CCCCO[C@H](CN(C)C(=O)Nc2cccc3ccccc23)[C@@H](C)CN([C@@H](C)CO)C(=O)c2cc(NC(=O)CCCN(C)C)ccc2O1`, the relative growth was inactive: 0.984.
In the case of `C[C@@H]1CN([C@@H](C)CO)C(=O)Cc2cc(NC(=O)Cn3cnnn3)ccc2O[C@H]1CN(C)C(=O)Nc1ccccc1` it was inactive: 0.981; in that of `COc1ccc(S(=O)(=O)Nc2ccc3c(c2)CC(=O)N([C@H](C)CO)C[C@H](C)[C@H](CN(C)Cc2ccc(Cl)c(Cl)c2)O3)cc1`, inactive: 1.01.
In the case of `CC1(C)CC2C1CCC1(C)OC1CCC2(C)O` (stereo not given) it was inactive: 0.967; in that of `CNC[C@H]1OCCCC[C@@H](C)Oc2ccc(NS(=O)(=O)c3c(C)noc3C)cc2C(=O)N([C@H](C)CO)C[C@H]1C`, inactive: 0.981.
Take `COc1cc(/C=C/C(=O)NCCCNC(=O)/C=C/c2cc(OC)c(OC)c(OC)c2)cc(OC)c1OC`: the relative growth is inactive: 1.
As to `C[C@@H]1CN([C@H](C)CO)C(=O)Cc2cc(NS(=O)(=O)c3cccs3)ccc2O[C@@H]1CN(C)C(=O)Nc1cccc2ccccc12`, the relative growth was inactive: 0.976.
Consider `Cc1noc(C)c1NC(=O)Nc1ccc2c(c1)CC(=O)N([C@H](C)CO)C[C@H](C)[C@H](CN(C)S(=O)(=O)c1cn(C)cn1)O2`, for which the relative growth was inactive: 0.976.
On to `CO[C@H]1CN(C)C(=O)c2ccc(NC(C)=O)cc2OC[C@H](C)N(S(=O)(=O)c2cn(C)cn2)C[C@@H]1C`, for which the relative growth is inactive: 0.965.
With `Cc1ccc(S(=O)(=O)N(C)C[C@H]2OCCCC[C@@H](C)Oc3ccc(NC(=O)CCC(F)(F)F)cc3C(=O)N([C@@H](C)CO)C[C@@H]2C)cc1`, the relative growth was inactive: 0.974.
Turning to `C[C@@H]1CN([C@@H](C)CO)C(=O)c2cc(NS(=O)(=O)c3ccc(Cl)cc3)ccc2O[C@@H](C)CCCCO[C@@H]1CN(C)C(=O)NC1CCCCC1`, the relative growth was inactive: 1.01.
For the molecule `C[C@H](CO)N1C[C@H](C)[C@@H](CN(C)S(=O)(=O)c2cn(C)cn2)OCCCC[C@H](C)Oc2ccc(NS(=O)(=O)c3cn(C)cn3)cc2C1=O`, the relative growth is inactive: 0.997.
